Source: paper PMC12005928
No constants are given. Whether binding was seen depends on the method and setting. For some assays here: Binding seen in cells or lysates may run through a third protein. Some binding calls cover weakened binding; strength is not graded here. For some assays here: Tags and fused reporters may be left off the sequences shown.

Chains of the proteins cited; added tags and fusions are not shown.
UniProt Q96I24: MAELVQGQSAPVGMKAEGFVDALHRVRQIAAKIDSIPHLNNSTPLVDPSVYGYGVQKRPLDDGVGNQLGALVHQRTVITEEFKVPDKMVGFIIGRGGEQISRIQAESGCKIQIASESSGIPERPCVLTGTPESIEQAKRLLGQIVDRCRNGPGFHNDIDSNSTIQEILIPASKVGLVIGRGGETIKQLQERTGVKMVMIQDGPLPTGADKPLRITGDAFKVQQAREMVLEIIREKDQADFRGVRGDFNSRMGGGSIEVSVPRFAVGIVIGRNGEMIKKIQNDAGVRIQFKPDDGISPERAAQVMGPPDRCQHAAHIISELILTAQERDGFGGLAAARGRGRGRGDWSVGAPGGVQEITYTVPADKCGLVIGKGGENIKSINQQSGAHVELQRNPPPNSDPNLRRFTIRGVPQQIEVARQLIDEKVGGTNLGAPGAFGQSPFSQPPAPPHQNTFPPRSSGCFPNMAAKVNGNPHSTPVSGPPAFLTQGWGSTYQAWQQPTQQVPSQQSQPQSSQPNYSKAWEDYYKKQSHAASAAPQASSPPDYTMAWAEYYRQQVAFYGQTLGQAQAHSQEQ
UniProt Q96AE4: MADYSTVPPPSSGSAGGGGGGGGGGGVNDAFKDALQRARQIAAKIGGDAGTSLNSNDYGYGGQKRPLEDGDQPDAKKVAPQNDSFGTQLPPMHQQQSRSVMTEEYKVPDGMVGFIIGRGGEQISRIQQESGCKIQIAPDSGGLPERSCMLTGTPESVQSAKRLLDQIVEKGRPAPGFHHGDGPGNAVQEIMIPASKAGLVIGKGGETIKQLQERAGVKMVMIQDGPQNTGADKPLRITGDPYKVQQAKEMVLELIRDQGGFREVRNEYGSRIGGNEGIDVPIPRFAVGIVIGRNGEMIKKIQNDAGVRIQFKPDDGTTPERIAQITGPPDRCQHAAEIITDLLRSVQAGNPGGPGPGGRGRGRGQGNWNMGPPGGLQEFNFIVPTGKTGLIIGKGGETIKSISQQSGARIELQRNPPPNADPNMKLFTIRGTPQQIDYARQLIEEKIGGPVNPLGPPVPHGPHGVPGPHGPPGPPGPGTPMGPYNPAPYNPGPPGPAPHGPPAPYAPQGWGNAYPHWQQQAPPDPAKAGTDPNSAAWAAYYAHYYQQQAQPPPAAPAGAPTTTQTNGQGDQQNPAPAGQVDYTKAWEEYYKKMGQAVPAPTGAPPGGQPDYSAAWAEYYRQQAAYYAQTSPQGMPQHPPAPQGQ

B1: FUBP2-HA (protein, UniProt Q92945 1-711)
chain: MSDYSTGGPPPGPPPPAGGGGGAGGAGGGPPPGPPGAGDRGGGGPGGGGPGGGSAGGPSQPPGGGGPGIRKDAFADAVQRARQIAAKIGGDAATTVNNSTPDFGFGGQKRQLEDGDQPESKKLASQGDSISSQLGPIHPPPRTSMTEEYRVPDGMVGLIIGRGGEQINKIQQDSGCKVQISPDSGGLPERSVSLTGAPESVQKAKMMLDDIVSRGRGGPPGQFHDNANGGQNGTVQEIMIPAGKAGLVIGKGGETIKQLQERAGVKMILIQDGSQNTNVDKPLRIIGDPYKVQQACEMVMDILRERDQGGFGDRNEYGSRIGGGIDVPVPRHSVGVVIGRSGEMIKKIQNDAGVRIQFKQDDGTGPEKIAHIMGPPDRCEHAARIINDLLQSLRSGPPGPPGGPGMPPGGRGRGRGQGNWGPPGGEMTFSIPTHKCGLVIGRGGENVKAINQQTGAFVEISRQLPPNGDPNFKLFIIRGSPQQIDHAKQLIEEKIEGPLCPVGPGPGGPGPAGPMGPFNPGPFNQGPPGAPPHAGGPPPHQYPPQGWGNTYPQWQPPAPHDPSKAAAAAADPNAAWAAYYSHYYQQPPGPVPGPAPAPAAPPAQGEPPQPPPTGQSDYTKAWEEYYKKIGQQPQQPGAPPQQDYTKAWEEYYKKQAQVATGGGPGAPPGSQPDYSAAWAEYYRQQAAYYGQTPGPGGPQPPPTQQGQQQAQ

Experiments:
[1] = target: His-Tat (recombinant His-tagged Tat) (HIV-1) (UniProt P04608); assay: co-IP; recombinant protein interaction assay: 1 ug His-Tat and 10 ug GST-FUBP3 mixed in TBS buffer at 4 C, IP with anti-His antibody and Dynabeads Protein G, western blot; both purified
[2] = target: TatΔ1-21 aa (Tat-FLAG deletion variant) (HIV-1) (UniProt P04608); assay: co-IP; IP with anti-FLAG antibody from lysates of HEK293T cells 48 h after transfection with Tat-FLAG and HA-tagged FUBPs; 1 mg lysate, 4 ug antibody overnight at 4 C, Dynabeads Protein G; IP buffer 50 mM Tris-HCl pH 7.5, 1 mM EDTA, 150 mM NaCl, 1% Triton X-100; western blot; in Figure 5G pretreated or not with RNase before IP
[3] = target: Tat-FLAG (pFI-Tat(86)-FLAG-WT) (HIV-1) (UniProt P04608); assay: as above

| Molecule | binding [1] | binding [2] | binding [3] |
| --- | --- | --- | --- |
| GST-FUBP3 (recombinant N-terminal GST-FUBP3 fusion protein) (from UniProt Q96I24 1-572) | binds |  |  |
| FUBP3-HA (FUBP3-HA-WT, far-upstream element-binding protein 3) (from UniProt Q96I24 1-572) |  | binds | binds |
| FUBP1-HA (from UniProt Q96AE4 1-644) |  |  | no binding |
| B1 |  |  | no binding |
